Test results taken from PubChem BioAssay AID504332 (National Center for Advancing Translational Sciences (NCATS), 2011).
Out of some 350,000 compounds screened, about 31,000 (8.9%) were called active. The shares of active, inactive and inconclusive entries below differ from those in the screen. The call rests on the fitted dose curve; in most records, active means well fitted inhibition curve with a large enough effect; inconclusive means small, poorly fitted or top-dose-only effect; inactive means no such curve, though single readings can be large or run the other way. Potencies beside an inconclusive call are fits to weak or partial responses and may not hold up.
Further: nearly all actives have a fitted effect of over 75% in size.
On the % scale 0 is the no-effect control and ±100 the full control effect; potency means the concentration at half of the fitted maximal effect; tags describe the fitted curve by direction and shape.

The molecules below were run against Histone-lysine N-methyltransferase EHMT2 (Homo sapiens) (UniProt Q96KQ7) (assay: qHTS Assay for Inhibitors of Histone Lysine Methyltransferase G9a). Conditions: G9a H3K9 monomethylation, AlphaScreen, 2 h; activity, negative = inhibition: at 59 µM (top of the series) unless noted.
Sequence of UniProt Q96KQ7 (Q96KQ7 whole entry, looked up): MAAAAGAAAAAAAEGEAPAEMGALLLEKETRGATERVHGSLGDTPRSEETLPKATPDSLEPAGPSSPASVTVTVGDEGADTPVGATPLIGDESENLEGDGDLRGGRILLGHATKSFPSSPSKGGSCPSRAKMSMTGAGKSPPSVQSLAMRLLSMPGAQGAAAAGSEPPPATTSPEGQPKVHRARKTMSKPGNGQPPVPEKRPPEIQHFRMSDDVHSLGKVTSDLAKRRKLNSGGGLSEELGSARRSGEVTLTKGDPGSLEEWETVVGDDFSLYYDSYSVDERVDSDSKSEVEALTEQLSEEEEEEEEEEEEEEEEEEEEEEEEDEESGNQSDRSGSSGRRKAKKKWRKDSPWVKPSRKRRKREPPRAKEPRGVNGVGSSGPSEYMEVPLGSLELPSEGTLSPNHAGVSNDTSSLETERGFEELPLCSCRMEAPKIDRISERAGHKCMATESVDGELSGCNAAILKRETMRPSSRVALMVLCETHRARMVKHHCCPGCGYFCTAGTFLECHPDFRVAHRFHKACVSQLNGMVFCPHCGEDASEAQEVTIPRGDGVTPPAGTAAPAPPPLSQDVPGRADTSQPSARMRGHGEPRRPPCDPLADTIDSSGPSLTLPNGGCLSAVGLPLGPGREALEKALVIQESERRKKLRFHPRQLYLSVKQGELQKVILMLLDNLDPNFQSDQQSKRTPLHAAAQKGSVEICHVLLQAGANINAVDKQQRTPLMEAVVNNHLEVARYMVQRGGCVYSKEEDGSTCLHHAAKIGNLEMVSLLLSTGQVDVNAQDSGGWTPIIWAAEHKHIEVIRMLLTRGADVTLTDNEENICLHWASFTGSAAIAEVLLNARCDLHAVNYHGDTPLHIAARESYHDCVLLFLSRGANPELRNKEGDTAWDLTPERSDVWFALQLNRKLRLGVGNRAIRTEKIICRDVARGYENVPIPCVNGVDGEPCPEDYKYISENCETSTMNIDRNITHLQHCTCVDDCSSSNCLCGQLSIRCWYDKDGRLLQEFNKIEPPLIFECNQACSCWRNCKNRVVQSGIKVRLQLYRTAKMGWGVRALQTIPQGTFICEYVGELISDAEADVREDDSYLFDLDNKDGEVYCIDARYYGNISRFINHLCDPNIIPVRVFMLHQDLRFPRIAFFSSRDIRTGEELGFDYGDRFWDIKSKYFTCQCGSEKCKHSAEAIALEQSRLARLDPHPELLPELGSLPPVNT
In short: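 Using a bead-based AlphaScreen, monomethylated H3K9 product from 2 h room-temperature reactions (G9a 20 nM, peptide 500 nM, SAM 20 uM) was detected with 0.5 ug/mL rabbit anti-H3K9me1 antibody.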
With `COc1ccc(-c2nc(SC(C)C(=O)Nc3ccc(NC(C)=O)cc3)n[nH]2)cc1` (stereo not given) the activity, negative = inhibition was inactive: 7.35% [at 0.501 µM]. With `CC(=O)c1ccccc1C(=O)N1CCCC(C(=O)c2ccc(C(F)(F)F)cc2)C1` (stereo not given) the “activity, negative = inhibition” value was inactive: -7.8% [at 102 µM]. In the case of `CCCCCNC(=O)c1ccc2c(=O)n(CC3CCCO3)c(=S)[nH]c2c1` (stereo not given), the Potency is reported as inconclusive: 5.01 µM [inhibitor, full curve, poor fit]. In the case of `O=C(CSc1ccc(-c2ccc3c(c2)OCO3)nn1)Nc1nccs1`, the “activity, negative = inhibition” value is reported as inactive: 3.12% [at 102 µM]. In the case of `COc1ccc(NC(=S)N(CCN2CCOCC2)C2CCN(C(C)=O)CC2)cc1Cl`, the Potency is reported as inconclusive: 39.8 µM [inhibitor, single point]. In the case of `COc1ccc(CN2CCN(Cc3cccc(Oc4ccccc4)c3)CC2)c(OC)c1OC`, the Potency is reported as active: 44.7 µM. For `CCOC(=O)CCCCC(=O)c1[nH]c(=O)[nH]c1CSc1nc(C)cc(=O)[nH]1`, the Potency was inconclusive: 15.8 µM [inhibitor, single point]. In the case of `O=C(NCCC1=CCCCC1)C1CCN(S(=O)(=O)c2ccccc2C(F)(F)F)CC1`, the “activity, negative = inhibition” value is reported as inactive: 14.7% [at 102 µM]. `Cc1cc2oc(C(=O)Nc3ccc(S(=O)(=O)Nc4onc(C)c4C)cc3)cc(=O)c2cc1C` was tested, and the “activity, negative = inhibition” value was inactive: 8.08%. In the case of `COc1ccc(C(C#N)N2CCC(c3ccccc3)=N2)cc1OC` (stereo not given), the Potency is reported as active: 17.8 µM. `Fc1cccc(CSc2ccc(-c3ccc4c(c3)OCO4)nn2)c1` was tested, and the “activity, negative = inhibition” value was inactive: -9.62% [at 102 µM]. For `NS(=O)(=O)c1cc(C(=O)OCC(=O)Nc2ccc(N3CCCCC3)cc2)ccc1Cl`, the Potency was inconclusive: 35.5 µM [inhibitor, partial curve, poor fit]. With `Cc1cccc(N2N=C(C(=O)Nc3ccc(Cl)c(S(=O)(=O)N4CCOCC4)c3)CCC2=O)c1` the Potency was inconclusive: 15.8 µM [inhibitor, single point]. For `CCc1ccc2oc(C(=O)Nc3nc(-c4ccccc4)ns3)c(C)c2c1`, the “activity, negative = inhibition” value was inactive: -2.05%. With `COC(=O)c1ccc(NC(=O)CSc2nc3ccccc3c(=O)[nH]2)cc1` the Potency was inconclusive: 28.2 µM [inhibitor, single point]. With `N#CCSc1n[nH]c2nc3c(c(=O)n12)C1(CCCC1)Cc1ccccc1-3` the Potency was inconclusive: 35.5 µM [inhibitor, single point]. `CCN(CCCNC(=O)c1cc2c(=O)[nH]c3ccc(C)cc3c2s1)Cc1ccccc1` was tested, and the Potency was inconclusive: 28.2 µM [inhibitor, partial curve, poor fit]. In the case of `Cc1cccc(N2CCN(C(=S)Nc3ccc4nc(N5CCOCC5)cc(C)c4c3)CC2C)c1` (stereo not given), the Potency is reported as inconclusive: 89.1 µM [inhibitor, single point]. With `Cc1ccccc1C(=O)Nc1sc2c(c1C(=O)N1CCC(C)CC1)CCCC2` the Potency was inconclusive: 39.8 µM [inhibitor, single point]. With `Cc1ccc(CSCC(=O)N/N=C/c2ccc(OCC(=O)Nc3ccc(C)cc3)cc2)cc1` the Potency was active: 17.8 µM. For `Cc1ccc(CNC(=O)CSc2nc3ccsc3c(=O)n2NC(=O)c2ccccc2)cc1`, the Potency was inconclusive: 79.4 µM [inhibitor, single point]. With `O=C(NC1CCN(C(=S)NCc2ccco2)CC1)C1CCCCC1` the Potency was inconclusive: 22.4 µM [inhibitor, single point]. In the case of `Cc1cccn2c1nc(=S)n2C(=O)c1ccco1`, the Potency is reported as inconclusive: 79.4 µM [inhibitor, single point]. `O=C(CSc1nc(=O)[nH]c2c1CCCC2)NCc1ccc(Cl)cc1` was tested, and the “activity, negative = inhibition” value was inactive: 4.42%. For `COc1ccc(Br)cc1CN1CCN(C(=O)c2cccc(F)c2)CC1`, the Potency was active: 10 µM. In the case of `CCCc1ncc(CN2CCC(C(=O)Nc3cccc(-c4cscn4)c3)CC2)cn1`, the “activity, negative = inhibition” value is reported as inactive: 0.232% [at 102 µM]. For `C=CCSc1nc(C)c(Cc2cccc3ccccc23)c(=O)[nH]1`, the Potency was inconclusive: 2.24 µM [inhibitor, partial curve, poor fit]. With `CCOC(=O)C(Cc1ccccc1)C(=O)c1ccco1` (stereo not given) the activity, negative = inhibition was inactive: 7.03% [at 12.7 µM]. In the case of `CN(CC(=O)NCCc1ccccc1)S(=O)(=O)c1cccc2nsnc12`, the Potency is reported as inconclusive: 79.4 µM [inhibitor, single point]. For `Cc1cccc(N2CCC(N3CCN(C4CCCCC4)C(CCO)C3)CC2)c1C` (stereo not given), the Potency was active: 15.8 µM. In the case of `O=C(COC(=O)c1ccc(Cl)nc1)Nc1cccc(S(=O)(=O)N2CCCCC2)c1`, the activity, negative = inhibition is reported as inactive: -35.4% [at 12.7 µM]. For `CCOC(=O)C(N)CSC1CC(=O)N(c2ccc(OC)cc2)C1=O` (stereo not given), the Potency was active: 44.7 µM. For `CC(=O)N1CCc2cc(S(=O)(=O)NC(Cc3ccccc3)C(=O)Nc3cc(C)ccn3)ccc21` (stereo not given), the Potency was inconclusive: 89.1 µM [inhibitor, single point]. For `COC(=O)C1CCN(C(=O)CSc2nc3ccc(OC)cc3[nH]2)CC1`, the Potency was active: 50.1 µM. `CN(C1CCCCC1)S(=O)(=O)CCNC(=O)c1ccccc1` was tested, and the “activity, negative = inhibition” value was inactive: -7.06% [at 102 µM]. For `O=C(O)c1cccnc1SC1CC(=O)N(Cc2ccccc2)C1=O` (stereo not given), the “activity, negative = inhibition” value was inactive: 3.37%. `COc1ccc(-c2cc(=O)c3cc(F)ccc3[nH]2)cc1` was tested, and the Potency was inconclusive: 89.1 µM [inhibitor, single point]. For `COc1cc(C(=O)N2CCN(C(=O)c3ccccc3)CC2)cc(OC)c1OC`, the Potency was inconclusive: 50.1 µM [inhibitor, partial curve]. For `COCCn1c(N)c(N(Cc2ccccc2)C(=O)c2oc3ccccc3c2C)c(=O)[nH]c1=O`, the “activity, negative = inhibition” value was inactive: -2.32%. `COc1ccc(Cc2nc(C)cc(Cl)n2)cc1[N+](=O)[O-]` was tested, and the Potency was inconclusive: 89.1 µM [inhibitor, single point]. For `O=C(Nc1ccc(Oc2ccccc2)cc1)C1CCN(S(=O)(=O)c2ccccc2)CC1`, the Potency was inconclusive: 25.1 µM [inhibitor, partial curve, poor fit]. For `COC(=O)C(Cc1c[nH]c2ccccc12)NC(=O)c1cc(-c2ccc(OC)c(OC)c2)oc1C` (stereo not given), the Potency was active: 50.1 µM. `Cc1oc2ccc(O)c(CN3CCN(Cc4ccccc4)CC3)c2c1C(=O)Nc1cccc(Cl)c1C` was tested, and the “activity, negative = inhibition” value was inactive: -15.8%. With `COCCNC(=O)CN(C(=O)CCC(=O)Nc1nccs1)c1ccccc1OC` the Potency was inconclusive: 89.1 µM [inhibitor, partial curve, poor fit]. `O=C(Nc1cccc(C(=O)N2CCN(c3ccc(F)cc3)CC2)c1)c1nsc2ccccc12` was tested, and the Potency was inconclusive: 39.8 µM [inhibitor, partial curve, poor fit].
